# Paper PMC4336329 (PLoS ONE, 2015)
# The campaign covered roughly 310,000 compounds. About 2,200 (0.71%) showed an effect of 50% or more. Effects have a minus sign here. The list shows a part of the results.
# Target: human ether-à-go-go-related gene (hERG) potassium channel (human, UniProt Q12809)
# Assay: primary screen, population patch clamp on CHO cells stably expressing hERG
# Chain of human ether-à-go-go-related gene (hERG) potassium channel (Q12809 whole entry, looked up): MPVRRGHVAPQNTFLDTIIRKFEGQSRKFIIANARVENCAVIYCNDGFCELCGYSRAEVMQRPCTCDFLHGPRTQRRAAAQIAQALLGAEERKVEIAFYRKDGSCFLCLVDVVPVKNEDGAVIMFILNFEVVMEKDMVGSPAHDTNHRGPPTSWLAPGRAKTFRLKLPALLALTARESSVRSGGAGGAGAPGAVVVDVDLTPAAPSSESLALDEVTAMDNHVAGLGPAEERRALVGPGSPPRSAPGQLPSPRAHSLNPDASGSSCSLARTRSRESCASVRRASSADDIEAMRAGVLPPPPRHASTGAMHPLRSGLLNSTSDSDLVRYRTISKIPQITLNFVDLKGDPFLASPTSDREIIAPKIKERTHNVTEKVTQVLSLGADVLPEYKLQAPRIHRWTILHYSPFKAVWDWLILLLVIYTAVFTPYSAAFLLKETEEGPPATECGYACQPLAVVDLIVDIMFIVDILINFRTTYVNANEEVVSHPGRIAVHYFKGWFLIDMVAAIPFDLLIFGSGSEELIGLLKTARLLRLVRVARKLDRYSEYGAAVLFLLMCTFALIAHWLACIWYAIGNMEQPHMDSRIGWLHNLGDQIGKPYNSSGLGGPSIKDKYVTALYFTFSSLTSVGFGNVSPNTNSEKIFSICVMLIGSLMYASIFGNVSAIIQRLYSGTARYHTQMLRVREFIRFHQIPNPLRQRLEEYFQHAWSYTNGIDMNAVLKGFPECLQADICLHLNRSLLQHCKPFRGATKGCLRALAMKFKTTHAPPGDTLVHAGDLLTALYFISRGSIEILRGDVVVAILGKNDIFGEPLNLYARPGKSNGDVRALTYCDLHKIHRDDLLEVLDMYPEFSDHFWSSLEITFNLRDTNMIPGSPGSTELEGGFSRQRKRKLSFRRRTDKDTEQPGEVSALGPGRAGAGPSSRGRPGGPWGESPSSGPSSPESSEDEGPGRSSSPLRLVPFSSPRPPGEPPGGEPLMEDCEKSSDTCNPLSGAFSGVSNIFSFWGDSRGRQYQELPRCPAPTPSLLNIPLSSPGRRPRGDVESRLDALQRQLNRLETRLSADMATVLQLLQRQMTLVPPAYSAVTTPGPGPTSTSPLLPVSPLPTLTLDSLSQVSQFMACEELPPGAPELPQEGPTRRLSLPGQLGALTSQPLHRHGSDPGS
row,Structure (SMILES),"hERG current change (%, negative = inhibition) at 1uM [%]"
1,O=C(Nc1ccc2c(c1)CCC2)c1ccccc1,17.8
2,CCOc1ccccc1-c1nc(-c2ccc(NC(=O)c3ccc(Br)o3)cc2)no1,3.19
3,CC(C)n1nnnc1SCC(=O)NCCc1ccccc1,7.75
4,COc1ccc(C(C(=O)Nc2ccc(C(C)C)cc2)N(C)C(=O)c2ccc(=O)[nH]c2)cc1 (stereo not shown),10.8
5,CC(C)CCC(C)NC(=O)Cc1ccc(S(=O)(=O)N2CCOCC2)s1 (stereo not shown),19
6,CCOCc1nnc(NC(=O)C2CC(=O)N(CCc3ccc(F)cc3)C2)s1 (stereo not shown),12.4
7,Nc1[nH]c(=O)ncc1F,14.5
8,CCC1CCc2sc(C(=O)NCC(c3ccc(OC)cc3)N3CCOCC3)cc2C1 (stereo not shown),22
9,O=C(Nc1nnc(Cc2ccccc2)s1)c1ccccc1,6.76
10,Cc1cc(NS(=O)(=O)c2ccc(NC(=O)/C=C/c3ccco3)cc2)nc(C)n1,6.56
11,O=S(=O)(Cc1noc(-c2ccc(Cl)cc2)n1)Cc1ccco1,5.41
12,CN1CCC(C2(O)c3ccccc3CCc3ccccc32)CC1,-6.78
13,COc1ccccc1NS(=O)(=O)c1ccc(O)c(C(N)=O)c1,1.68
14,O=C(CCCCCNc1nc(=S)[nH]c2ccccc12)NCCC1=CCCCC1,2.18
15,CC1CCC(NC(=O)C2CCN(c3nc4ccccc4s3)CC2)CC1 (stereo not shown),13.9
16,O=C(N=C1SC2CS(=O)(=O)CC2N1Cc1ccccc1Cl)C1CCCO1 (stereo not shown),20.4
17,CC(=O)Nc1c(C(=O)N2CCOCC2)sc2nc3c(cc12)COC(C)(C)C3,11.4
18,CCC1=NN2C(=N)/C(=C\c3cccn3-c3cccc(Cl)c3)C(=O)N=C2S1,10.3
19,Cn1c(C(=O)NC2CCCCC2)cc2c(=O)n3ccccc3nc21,13.4
20,CCOc1ccc(CCNC(=O)CN2CCN(Cc3ccccc3C)C2=O)cc1OCC,7.86
21,Cc1ccc(NC(=O)CCN2C(=O)C3CCCCC3C2=O)c(O)c1 (stereo not shown),7.67
22,O=C(CCOc1ccccc1)Nc1ccnn1C1CCN(C(=O)CCC(F)(F)F)CC1,9.1

row,Structure (SMILES),"hERG current change (%, negative = inhibition) at 1uM [%]"
1,CN(C)c1ccc(C(=S)N2CCN(c3ccccc3)CC2)cc1,16.4
2,COc1ccc(S(=O)(=O)NCCc2cn3nc(C)c(C)nc3n2)cc1,16.1
3,CCN(CC)S(=O)(=O)c1ccc(NC(=O)COC(=O)CN2C(=O)c3ccccc3C2=O)cc1,-1.65
4,FC(F)C(F)(F)C(F)(F)C(F)(F)c1cc(-c2ccccc2)n[nH]1,9.58
5,COc1ccc(C2CC2/C(=N/OC(=O)c2cccs2)c2ccccc2)cc1 (stereo not shown),8.59
6,O=C(CN1CCN(Cc2ccccc2)CC1)c1c[nH]c2ccccc12,-23.3
7,O=C(C(=O)N1CCOCC1)c1cn(Cc2ccccc2F)c2ccccc12,7.14
8,Cc1ccc(CNC(=O)CN2C(C)CCCC2C)cc1 (stereo not shown),0.127
9,CCN(CC)C(=O)Cn1c(=O)n(-c2ccc(CC(=O)NCc3ccccc3)cc2)c(=O)c2sccc21,9.06
10,CNC(=S)N1CCc2cc(OC)c(OC)cc2C1,2.67
11,COc1cc(OC)c(OC)cc1/C=N/NC(=O)c1ccc(=O)n(C)c1,10.2
12,CC(OC(=O)Cc1c(F)cccc1Cl)C(=O)NCCC1=CCCCC1 (stereo not shown),3.96
13,COc1cccc(-c2nnn(CC(C)=O)n2)c1,1.66
14,S=C(NCc1ccncc1)Nc1ccc(Cl)cc1,5.24
15,CN(C)S(=O)(=O)c1ccc(-c2csc(-c3cccnc3)n2)cc1,9.09
16,CN(C)C(=O)[C@H]1C[C@H]1[C@@H](O)[C@H](CO)NC(=O)[C@H](COCc1ccccc1)NC(=O)OC(C)(C)C,12.7
17,Cc1ccccc1NS(=O)(=O)c1cc(C(=O)NCc2ccco2)ccc1C,4.24
18,O=C(Nc1cccc(C(=O)O)c1)/C(=C/c1ccc([N+](=O)[O-])cc1)NC(=O)c1ccccc1,2.55
19,Cn1cc(CC(=O)NCCCN2CCCC2=O)c2ccccc21,11.7
20,Cc1ccccc1CSCC(=O)NC(=O)NC(C)(C)C,-1.26
21,CC(=O)c1ccc(N2CCN(C(=O)c3ccc(OCc4c(C)noc4C)cc3)CC2)cc1,11.9
22,COc1ccc(/C=C2\CN(Cc3ccccc3)C/C(=C\c3ccc(OC)c(O)c3)C2=O)cc1O,13.1

row,Structure (SMILES),"hERG current change (%, negative = inhibition) at 1uM [%]"
1,CCC(=O)N1CCc2cc(Br)cc(S(=O)(=O)Nc3c(C)n(C)n(-c4ccccc4)c3=O)c21,13.7
2,COc1ccc(Cn2c(C)c(C)c(C#N)c2NC(=O)Nc2cccc(C)c2)cc1,14.2
3,CCN(C(=O)CSc1nnc(-c2ccncc2)n1C)C1CCS(=O)(=O)C1 (stereo not shown),11.6
4,Cc1ccc(NC(=O)C2CCN(S(=O)(=O)c3cnc[nH]3)CC2)nc1,12.7
5,Cc1cc2nc(/N=C(\N)NC(=O)C(C)C)nc(C)c2cc1C,21
6,C[C@@H]1CN(Cc2nc(-c3ccc(Cl)cc3)no2)C[C@H](C)O1,3.41
7,CC1=CCC2C(=O)N(c3cccc(C(=O)Nc4ccc(Cl)cc4)c3)C(=O)C2C1 (stereo not shown),3.06
8,CCN(CC)C(=O)CSc1nc(O)c(Cc2ccc(OC)cc2)c(=O)[nH]1,15.2
9,N#Cc1nc(-c2ccco2)oc1N1CCc2ccccc2C1,13.4
10,CCOc1ccc(CCNC(=O)C(CC)n2nc(C)n3c(cc4sccc43)c2=O)cc1OCC (stereo not shown),-1.76
11,COC(=O)c1sc(NC(=O)c2ccc(Cn3cc(Cl)cn3)o2)c(C#N)c1C,9.46
12,O=CC(Br)P(=O)(N1CCOCC1)N1CCOCC1 (stereo not shown),11.5
13,Cc1ccc(S(=O)(=O)N2CCCCC2)cc1NC(=O)CSc1ncnc2ccccc12,-0.402
14,CC(C)N1CCC(N2CCN(Cc3ccc4nsnc4c3)CC2CCO)CC1 (stereo not shown),5.31
15,O=C(CSc1nccn(-c2ccc(Br)cc2)c1=O)NC1CCCC1,9.58
16,COCCSc1nnc(NS(=O)(=O)Cc2ccccc2)s1,6.31
17,O=C(Nc1ccccc1)c1c(O)[nH]c(=O)[nH]c1=O,13
18,COc1cc(C(O)P(=O)(OCC(C)C)c2ccc(N(C)C)cc2)cc(OC)c1OC (stereo not shown),10.6
19,Cc1nc(C)n(C(C)CC(=O)O)n1 (stereo not shown),10.9
20,O=C(CSCc1c[nH]c(=O)[nH]c1=O)OCC(=O)c1ccc(Br)cc1,13.4
21,CC(=O)Nc1ccc(S(=O)(=O)NCCC(=O)N2CCN(C(c3ccccc3)c3ccccc3)CC2)cc1,3.9
22,O=C(NCCc1ccccc1)Nc1ccc(Cl)cc1,14.1

row,Structure (SMILES),"hERG current change (%, negative = inhibition) at 1uM [%]"
1,CCc1nnc(N/N=C/c2cc(Br)c(O)cc2O)n1N,13.6
2,CCCc1nc2ccccc2c(C(=O)OCC(=O)Nc2cccc(S(=O)(=O)N3CCOCC3)c2)c1CC,10.6
3,O=C(NCc1ccco1)c1ccc(COCC(F)(F)C(F)F)cc1,8.05
4,CCN(CC)C(=O)Cn1cc(S(=O)(=O)CC(=O)Nc2ccc(F)cc2)c2ccccc21,3.42
5,Cc1ccc(S(=O)Cc2ccc(C(=O)N3CCN(C4CCCCC4)CC3)o2)cc1 (stereo not shown),6.2
6,COc1ccc(S(=O)(=O)N2CCN(c3ncccn3)CC2)cc1,-2.83
7,CCCOc1ccc(C2Nc3cccc4cccc(c34)N2)cc1,15.7
8,CCOC(=O)c1sc(NC(=O)C2CC(=O)N(c3ccc(OC)cc3)C2)nc1C (stereo not shown),12
9,O=S(=O)(NCc1nnc2c(C(F)(F)F)cc(Cl)cn12)c1ccccc1,9.79
10,COc1ccc(OCC(O)CN2C(=O)c3ccccc3C2=O)cc1 (stereo not shown),17.9
11,Cc1c(C)c2ccc(OCC(=O)NC(Cc3c[nH]c4ccc(O)cc34)C(=O)O)c(C)c2oc1=O (stereo not shown),11.8
12,Cc1ccc(S(=O)(=O)Nc2cccc(C(=O)NCC(c3ccccc3)N(C)C)c2)cc1F (stereo not shown),-6.13
13,COc1ccc(S(=O)(=O)NC(C)c2ccccc2)cc1C(=O)N1CCCCC1 (stereo not shown),9.02
14,CCCC[C@@H]1CNC(=S)N1CC1CCCCC1,11.5
15,CC1(C)Cc2cccc(OCC(=O)OCc3nnc(-c4ccc([N+](=O)[O-])cc4)o3)c2O1,0.342
16,CC1=CC(C)(C)Nc2ccc(OC(=O)C(C)N3C(=O)c4ccccc4C3=O)cc21 (stereo not shown),4.13
17,COc1ccc(NC(=O)c2ccco2)cc1NC(=O)c1cccs1,-2.83
18,CSc1ccccc1NC(=O)Nc1ccc(F)c(Cl)c1,0.602
19,CNC(=S)NNC(=O)c1sccc1OCc1cccc(C(F)(F)F)c1,20.9
20,CSc1ccc(C#N)cc1NC(=O)c1ccc(Cl)cc1,9.22
21,Clc1ccc(-c2cn3cc(Cl)ccc3n2)cc1,14.1
22,O=S1(=O)[C@H]2C[C@@H]3C=C[C@@]2(CN1Cc1ccccc1F)O3,10.3
